PMC5515408
The list shows a part of the results. At the low end of the ranking the order means little.

These sequences were tested against MAX:MAX (p21) (UniProt P61244-2) (assay: protein-binding microarray (anti-MAX antibody)). Conditions: PBM: 15 mM Tris-HCl pH 7.5, 100 mM KCl, 0.075% NP40, 7.5 mM beta-mercaptoethanol, 375 ng/ul BSA, 8 ng/ul poly(dA-dT):(dA-dT), 550 ng complex, 60 min, room …; high values mean tight binding; double strand, one strand shown; sequences stand for … in CCGGC…TTAATAGCTAAGATTACTATATCGACG.

| Sequence | binding signal (log2 normalized fluorescence) |
| --- | --- |
| TGAATGTAAGTA | 0.15 |
| TGATTGACCGTA | -0.705 |
| TTTCACGAGGTA | 2.88 |
| TGATCGTATGTA | -0.0281 |
| TGAGTCTACGTA | -1.08 |
| TGACTGCTGGTA | 0.0201 |
| GCTCACGTGGTA | 3.34 |
| TGAGAAGTGGTA | -0.662 |
| TGAGTCTCAGTA | -0.907 |
| TGAAGTTTTGTA | -1.16 |
| TGATTTACCGTA | -0.871 |
| TGATAATCCGTA | -1.37 |
| TGATACCGTGTA | 0.507 |
| TGAGGAGGCGTA | -0.734 |
| TGAATGGCAGTA | 0.363 |
| TGAAGCTTAGTA | -0.954 |
| TGACACTGGGTA | -0.0981 |
| TGAGACTGCGTA | -0.509 |
| TGAGATCCGGTA | -1.12 |
| TGACTAGTGGTA | -0.113 |
| TGACACGTTGTT | 3.22 |
| TGATAATCTGTA | -1 |
| TGATGAACGGTA | -0.491 |
| TGACATGAGTTA | 2.36 |
| TGACAATCTGTA | -0.193 |

| Sequence | binding signal (log2 normalized fluorescence) |
| --- | --- |
| TGATGAGTTGTA | -0.57 |
| TGACGCTTGGTA | -0.49 |
| TGAGGTGAGGTA | -0.115 |
| CGAGACGTAGTT | -0.866 |
| TGAACGGGGGTA | 1.39 |
| TGATAGGTAGTA | -0.89 |
| TGACACGTTCGA | 2.6 |
| TGACACGCGTTA | 3.04 |
| TGACACGTAGTT | 1.59 |
| GGAAACGGGGTA | 0.942 |
| TGATACCGAGTA | -0.655 |
| TGACAGGGCGTA | -0.314 |
| TGACCAGTGGTA | 0.0575 |
| TGACGCTCGGTA | -0.419 |
| TGAACACCTGTA | 1.86 |
| TGAGGGTGTGTA | 0.424 |
| TCTTACGTGGTA | 0.802 |
| TGACTGACTGTA | -0.0276 |
| CTACACGTGGTG | 3.19 |
| TGACGAGCCGTA | -0.379 |
| TGAATCTCGGTA | -0.828 |
| TGAAGGGCTGTA | -0.27 |
| TGACCGCGGGTA | 0.294 |
| TCACACATCGTA | 1.93 |
| TGAGGCACAGTA | -0.443 |

| Sequence | binding signal (log2 normalized fluorescence) |
| --- | --- |
| TGACACGGACTA | 0.955 |
| TGACAGGGTGTA | 0.438 |
| TGACCGAGAGTA | -0.626 |
| TGAGACCTTGTA | -0.67 |
| TGAACTTAGGTA | -0.672 |
| TGAAGGATTGTA | -0.589 |
| TGAGCGCTAGTA | -0.526 |
| TGAGGTCAGGTA | -0.448 |
| TGAACAAACGTA | -0.445 |
| TGAACGCCAGTA | -0.111 |
| TGGCACGTGGGA | 3.64 |
| TGACATGTTGTA | 2.16 |
| TGACACGGGGAA | 2.43 |
| TGGCACCCGGTA | 0.277 |
| TGATAAGCGGTA | -0.893 |
| TGACGATCGGTA | -0.405 |
| TGATACTCTGTA | -1.13 |
| TGACACCTTGTA | 0.67 |
| TGAACTATCGTA | -0.677 |
| TGACTCCTGGTA | 0.139 |
| TGAGCATCGGTA | -0.509 |
| TGATGGCGCGTA | 0.661 |
| TGATAAGTGGTA | -0.651 |
| TGAGTGCTTGTA | 0.135 |
| TGAAACGGGGTA | 0.332 |
